The target in this experiment is GTPase KRas (Homo sapiens) (UniProt P01116). Put plainly: Covalent labelling of cysteine mutants by fragments, read by mass spectrometry (AID 2202238). The settings on record: KRAS G12D cysteine mutants, disulfide tethering, MALDI-TOF labeling, stronger effect = higher value, fragment at 500 µM. The arrangement: protein at 5 µM with 500 µM competing thiol for 1.5 h.
Where [1] appears, read: measured here: G60C mutant labeling.
The mark [2] stands for this setting: measured here: G75C mutant labeling.
Where [3] appears, read: measured here: H94C mutant labeling.
Where [4] appears, read: measured here: I36C mutant labeling.
Setting [5] is: measured here: L120C mutant labeling.
Setting [6] is: measured here: M67C mutant labeling.
Where [7] appears, read: measured here: M72C mutant labeling.
Setting [8] is: measured here: N26C mutant labeling.
The mark [9] stands for this setting: measured here: N86C mutant labeling.
Setting [10] is: measured here: P121C mutant labeling.
Where [11] appears, read: measured here: S122C mutant labeling.
[12] abbreviates: measured here: S136C mutant labeling.

Each structure is given as a SMILES string. This is one part of the list. These are further read-outs of the screen, such as a control signal, another cell line or another target. No call is given for them.

From PubChem BioAssay AID2202238 (Ras Initiative Chemistry Research Team, Frederick National …, 2025) come the findings set out here.

UniProt P01116, sequence (P01116 whole entry, looked up, the tested form may be a part): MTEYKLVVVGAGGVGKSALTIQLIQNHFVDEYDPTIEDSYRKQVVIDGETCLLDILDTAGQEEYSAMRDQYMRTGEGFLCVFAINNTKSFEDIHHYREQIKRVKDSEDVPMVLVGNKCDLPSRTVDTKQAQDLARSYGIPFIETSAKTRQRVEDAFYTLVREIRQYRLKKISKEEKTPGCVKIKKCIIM

Regarding `O=C(NCCS)C1CCN(C(=O)c2cccc3ccccc23)CC1`, the percent labeling was 36.8% under setting [1]; 16.3% under setting [2]; 30.5% under setting [3]; 21.6% under setting [4]; 20.4% under setting [5]; 81.4% under setting [6]. The molecule further came in with a percent labeling under setting [7] of 30.6%; a percent labeling under setting [8] of 41.5%; a percent labeling under setting [9] of 15.4%; a percent labeling under setting [10] of 21.2%; a percent labeling under setting [11] of 17.8%; a percent labeling under setting [12] of 45.8%.
With `CN1C(=O)CO[C@@H](C(=O)NCCS)[C@H]1c1cnn(C)c1`, the percent labeling turned out to be 17.3% under setting [1]; 7.4% under setting [2]; 27.7% under setting [3]; 26.1% under setting [4]; 21.7% under setting [5]; 27.8% under setting [6]. Besides, the percent labeling under setting [7] turned out to be 11.1%; the percent labeling under setting [8] was 27.5%; the percent labeling under setting [9] amounted to 19.8%; the percent labeling under setting [10] was 34.1%; the percent labeling under setting [11] is 28.9%; the percent labeling under setting [12] was 35.3%.
Turning to `O=C(CCS)Nc1cc2ccc(Br)cn2n1`, the percent labeling is, setting by setting: under setting [2], 5.2%; under setting [3], 14%; under setting [4], 34.2%; under setting [5], 16%; under setting [6], 11.8%; under setting [7], 39.3%. For the same molecule, the percent labeling is, setting by setting: under setting [9], 18.8%; under setting [10], 13.4%; under setting [11], 10.5%; under setting [12], 24.6%.
On to `O=C(CCS)Nc1ccc(Cl)cc1-c1ccccc1`, for which the percent labeling runs as follows: under setting [2], 11.8%; under setting [3], 23.2%; under setting [4], 15.8%; under setting [5], 23.4%; under setting [6], 19.1%; under setting [7], 33.4%. For the same molecule, the percent labeling under setting [9] came to 18%, the percent labeling under setting [10] is 19.2%, the percent labeling under setting [11] is 12.6% and the percent labeling under setting [12] turned out to be 22.9%.
As for `Cn1nc(-c2ccco2)cc1NC(=O)CCS`, the percent labeling runs as follows: under setting [2], 14%; under setting [3], 25.6%; under setting [4], 33%; under setting [5], 32.7%; under setting [6], 23.3%; under setting [7], 44.7%. For the same molecule, the percent labeling is, setting by setting: under setting [9], 32.5%; under setting [10], 36.9%; under setting [11], 29.7%; under setting [12], 48.4%.
In the case of `O=C(CCS)N1CC(c2n[nH]c3c2COCC3)C1`, the percent labeling reads like this: under setting [2], 11.2%; under setting [3], 20.7%; under setting [4], 25.7%; under setting [5], 23.4%; under setting [6], 44.2%; under setting [7], 16.1%. The percent labeling under setting [9] is 12.3%, the percent labeling under setting [10] amounted to 26.8%, the percent labeling under setting [11] stood at 29.9% and the percent labeling under setting [12] turned out to be 47.1%.
`Cc1nc(-c2cccc(C(=O)NCCS)c2)no1` came in with a percent labeling under setting [1] of 49.8%; a percent labeling under setting [2] of 19.8%; a percent labeling under setting [3] of 33.1%; a percent labeling under setting [4] of 24.1%; a percent labeling under setting [5] of 36.4%; a percent labeling under setting [6] of 23.7%. For the same molecule, the percent labeling reads like this: under setting [7], 49.5%; under setting [8], 43.6%; under setting [9], 21.8%; under setting [10], 25.6%; under setting [11], 12.6%; under setting [12], 49.3%.
`Cc1cc(C(=O)NCCS)c2c(C)nn(-c3ccccc3)c2n1`: the percent labeling is, setting by setting: under setting [1], 17.2%; under setting [2], 7.2%; under setting [3], 10.5%; under setting [4], 8.2%; under setting [5], 7.9%; under setting [6], 13.1%. For the same molecule, the percent labeling was found to be 20.3% under setting [7]; 20.6% under setting [8]; 6.4% under setting [9]; 8.1% under setting [10]; 0% under setting [11]; 12.2% under setting [12].
On to `COc1cc(OC)c2cc(C(=O)NCCS)[nH]c2c1`, for which the percent labeling runs as follows: under setting [1], 14.9%; under setting [2], 7%; under setting [3], 13.3%; under setting [4], 11.5%; under setting [5], 21.6%; under setting [6], 12.3%. The percent labeling amounted to 28.2% under setting [7]; 28.2% under setting [8]; 11.6% under setting [9]; 14.9% under setting [10]; 11.6% under setting [11]; 20.7% under setting [12].
Turning to `CCOc1ccc(NC(=O)c2ccc(NC(=O)CCS)cc2)cc1`, the percent labeling by setting is: under setting [2], 3.8%; under setting [3], 2.3%; under setting [4], 5.9%; under setting [5], 4.3%; under setting [6], 3.4%; under setting [7], 3.5%. Moreover, the percent labeling by setting is: under setting [9], 3.2%; under setting [10], 4.1%; under setting [11], 0%; under setting [12], 6.3%.
With `O=C(NCCS)c1cccc(-n2nccc2C(F)(F)F)c1`, the percent labeling is, setting by setting: under setting [1], 27.9%; under setting [2], 16.9%; under setting [3], 19.3%; under setting [4], 13.3%; under setting [5], 19.7%; under setting [6], 17.2%. In addition, the percent labeling is 34.6% under setting [7]; 28.8% under setting [8]; 17.2% under setting [9]; 16.6% under setting [10]; 12.3% under setting [11]; 24% under setting [12].
For `Cc1cc(Cl)cc2cc(C(=O)NCCS)[nH]c12`, the percent labeling by setting is: under setting [1], 26.3%; under setting [2], 16.9%; under setting [3], 11.6%; under setting [4], 10.6%; under setting [5], 13.9%; under setting [6], 7.8%. The percent labeling is, setting by setting: under setting [7], 54.5%; under setting [8], 21.6%; under setting [9], 16.1%; under setting [10], 10.2%; under setting [11], 8.5%; under setting [12], 13%.
Turning to `COc1cccc(COCC(=O)NCCS)c1`, the percent labeling is, setting by setting: under setting [1], 40.2%; under setting [2], 19.5%; under setting [3], 30.5%; under setting [4], 28.3%; under setting [5], 45.4%; under setting [6], 31.8%. The percent labeling was 44.4% under setting [7]; 47.2% under setting [8]; 24.5% under setting [9]; 30.3% under setting [10]; 34.8% under setting [11]; 58.2% under setting [12].
Molecule `O=C(CCS)Nc1ccc2c(c1)C(F)(F)C(=O)N2` gave a percent labeling under setting [2] of 18.6%; a percent labeling under setting [3] of 25.8%; a percent labeling under setting [4] of 32.3%; a percent labeling under setting [5] of 17.7%; a percent labeling under setting [6] of 24.5%; a percent labeling under setting [7] of 42.3%. For the same molecule, the percent labeling runs as follows: under setting [9], 9%; under setting [10], 21.4%; under setting [11], 21.7%; under setting [12], 39.6%.
As for `O=C(CCS)N1CC(O)(c2cccnc2F)C1`, the percent labeling was 20.9% under setting [2]; 19.6% under setting [3]; 20.3% under setting [4]; 21.8% under setting [5]; 35% under setting [6]; 20.5% under setting [7]. In addition, the percent labeling is, setting by setting: under setting [9], 13.3%; under setting [10], 30.2%; under setting [11], 32.1%; under setting [12], 43.3%.
